Results published in the GPR68 mutational scans of Howard et al. (2025).
Scores with a large standard error are left out. Not listed are two conditions whose scores span a narrow range. Names with del lack the residues named; names with ins carry added residues between the positions named. For part of these data: How much ogerin was present is not stated here.

B1: GPR68, Q15743 (parent)
chain: MGNITADNSSMSCTIDHTIHQTLAPVVYVTVLVVGFPANCLSLYFGYLQIKARNELGVYLCNLTVADLFYICSLPFWLQYVLQHDNWSHGDLSCQVCGILLYENIYISVGFLCCISVDRYLAVAHPFRFHQFRTLKAAVGVSVVIWAKELLTSIYFLMHEEVIEDENQHRVCFEHYPIQAWQRAINYYRFLVGFLFPICLLLASYQGILRAVRRSHGTQKSRKDQIQRLVLSTVVIFLACFLPYHVLLLVRSVWEASCDFAKGVFNAYHFSLLLTSFNCVADPVLYCFVSETTHRDLARLRGACLAFLTCSRTGRAREAYPLGAPEASGKSGAQGEEPELLTKLHPAFQTPNSPGSGGFPTGRLA

Legend:
[1] = variants of: B1; assay: cAMP reporter score (Enrich2 score, wild type = 0); higher = more signal; HEK293T, FACS bins
[2] = variants of: B1; assay: surface expression score (Enrich2 score, wild type = 0); higher = more signal; HEK293T, FACS bins

Variant | cAMP reporter score ([1]; pH 5.5) | cAMP reporter score ([1]; pH 6) | cAMP reporter score ([1]; pH 6, modulator: ogerin) | cAMP reporter score ([1]; pH 6.5, modulator: ogerin) | surface expression score [2]
H125_P126insGS | -0.859 | -0.952 | -1.23 | -0.678 | -3.19
K136_A137insG | -1.57 | -1.14 | -1.86 | -1.54 | -2.95
H125_P126del | -1.14 | -2.74 | -0.898 | -2.83 | -3.38
V139H | -2.42 | -0.785 | -1.4 | -2.06 | -2.73
V139P | -1.04 | 0.041 | -1.46 |  | -2.4
V139Q | -1.22 | -0.438 | -0.401 | -1.04 | -1.56
V139A | 0.189 | 0.081 | 0.063 | -0.659 | -0.051
V139I | -0.223 |  | 0.126 | 0.063 | -0.561
V139E | -0.329 | -1.92 | -1.99 | -1.5 | 
V139L | -0.657 | -0.534 | -0.803 | -0.832 | -0.821
V139G | 0.625 | -0.422 | -0.575 | -0.49 | -2.17
V139N | -0.822 | -0.782 | -0.675 | -1.35 | 
V139C | -0.48 | -1.02 | -0.289 | 0.198 | -0.282
V139F | 0.824 | 0.202 | 0.47 | -0.897 | -0.017
V139M | -1.65 | -0.95 | -1.41 | -1.33 | -1.59
L135_K136insGSG | -1.71 |  |  | -0.98 | -2.43
P126del | -1.38 | -1.18 | -0.793 | -1.54 | -1.39
R133_T134del | -1.27 | -0.73 | -1.66 | -1.09 | -2.19
T134I | -0.844 | -1.19 |  |  | -3.2
T134V | -0.701 | 0.33 | -2.46 | -0.935 | -1.69
T134W | -2.48 | -1.47 | -1.13 | -1.28 | -1.42
T134G | -0.367 | -1.28 | -1.61 | -1.39 | -2.17

Variant | cAMP reporter score ([1]; pH 5.5) | cAMP reporter score ([1]; pH 6) | cAMP reporter score ([1]; pH 6, modulator: ogerin) | cAMP reporter score ([1]; pH 6.5, modulator: ogerin) | surface expression score [2]
T134C | 1.02 | -0.723 | 0.331 | -0.83 | -2.35
T134M | -1.46 | -0.769 | -1.27 | -1.38 | -2
T134E | 0.262 |  | -1.48 | -1.09 | -2.31
T134A | 0.529 | -1.07 | 0.886 | -0.51 | -2.55
T134Y | -0.555 | -1.08 | -1.11 | -1.57 | -2.65
T134P | -2.45 | -1.7 |  | -0.959 | -2.95
T134F | -0.407 | -0.233 | -1.7 | -0.437 | 
T134H | -1.52 | -0.572 | -1.35 | -1.25 | -2.64
T134D | -0.222 | 0.616 | -0.762 | -0.792 | -2.56
T134Q | 0.507 | -0.894 | -0.069 | -0.74 | -1.75
T134K | -0.547 | -1.25 | -1.18 | -0.603 | -1.75
T134S | 0.43 | -0.163 | 1.38 | 0.543 | -0.245
T134L | -1.52 | -1.53 | -0.337 | -2.09 | 
T134N | 0.633 |  | 0.902 | 0.243 | -0.366
T134R | -0.431 | -0.415 | -0.028 | -0.513 | -1.42
F129_H130del | -2.21 | -1.76 | -2.01 | -1.25 | -2.32
F129del | -0.854 | -1.39 |  | -0.753 | -0.618
A137_A138del | -1.11 | 0.476 | -0.303 | 0.636 | -0.921
A138_V139insGSG | -1.63 |  | -1.25 | -0.85 | -2.04
R133L | -1.66 | -1.96 | -1.67 | -1.56 | -1.8
R133V | -1.43 | -1.36 | -2.09 | -0.556 | -2.65
R133M | -1.17 | 0.282 |  | -0.797 | -0.88

Variant | cAMP reporter score ([1]; pH 5.5) | cAMP reporter score ([1]; pH 6) | cAMP reporter score ([1]; pH 6, modulator: ogerin) | cAMP reporter score ([1]; pH 6.5, modulator: ogerin) | surface expression score [2]
R133P | -0.609 |  |  | -1 | -2.49
R133G | -1.86 | -1.57 | -2.51 | -2.16 | -1.8
R133A | -1.7 | -2.05 | -1.43 | -1.32 | -2.35
R133H | -0.028 | -1.06 | -0.612 | -0.445 | -0.374
R133C | -2.12 | -0.601 | -1.67 | -1.39 | -2.35
R133I | -0.766 | -0.987 | -1.44 | -1.34 | -2.72
R133T | -2.27 | 0.747 | -0.615 | -1.18 | 
R133F | -1.59 | -0.853 | -1.89 | -1.03 | -1.98
R133E | -1.56 |  | -2.98 | -1.8 | -1.34
R133W | -1 | -0.28 | -1.11 | -0.96 | -1.21
R133K | 0.001 | -0.915 | -0.278 | -1.11 | -0.337
R133S | -1.22 | -0.983 |  | -1.23 | -1.99
R133Y | -0.568 |  | -3.13 | -1.23 | 
R133Q | -1.14 | -0.502 | -1.22 | -1.03 | -0.896
R133D | -1.72 | -1.17 |  |  | -1.98
R133N | -1.87 | -0.647 | -1.66 | -1.41 | -2.58
A124W | -1.55 | 0.763 | -2.27 |  | -3.42
A124Y | -0.564 | -0.359 | -0.759 | -0.875 | -1.7
A138_G140del | -1.41 | -0.484 |  |  | -4.37
Q131_F132insGSG | -1.06 |  |  |  | -1.94
L135_A137del | -0.797 | -0.683 | -0.62 | -0.961 | -3.15
